Measurements taken from the supplement of paper PMC11060735.
“And” between values parts separate entries of the source, which are not always exact repeats. Equal values may be shown once. Where a name gives a salt, the structure may show the parent alone. Hit rate of the full screen: of about 1,800 compounds, about 50 (3%) showed activity. This is one part of the list. Square brackets hold non-standard residues; d marks the D form. Peptide text beside a SMILES is read from it. pGlu = O=C1CC[C@@H](C(=O)O)N1; Thz = O=C(O)[C@@H]1CSCN1

System: mouse p16Ink4a+/- lung fibroblasts (INKBRITE, bleomycin-injured)
Experiment: percentage of GFP+ (p16Ink4a+) fibroblasts among all cells in well; higher = less depletion of p16Ink4a+ cells, active = 20 or less
Conditions: 1 µM; 3 days
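Note: fibroblasts sorted 14 days after bleomycin, GFP+ and GFP− mixed 1:1 in 384-well plates (GFP− as in-well control), imaged after Hoechst and NucView530 staining, reference wells lacked compound.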

Row | SMILES | percentage of GFP+
1 | C[C@@H]1CN(CC(=O)Nc2ccc3c(c2)Cc2cccc(-c4cc(=O)cc(N5CCOCC5)o4)c2S3)C[C@H](C)O1 | inactive: 44.7%
2 | Oc1ccc(/C=C/c2cc(O)cc(O)c2)cc1 [Resveratrol] | inactive: 42.8%
3 | CNC(=O)c1ccc(N2C(=S)N(c3cnc(C#N)c(C(F)(F)F)c3)C(=O)C23CCC3)cc1F | inactive: 58.2%
4 | COCCO/C(O)=C1\C(C)=NC(C)=C(C(=O)OC/C=C/c2ccccc2)C1c1cccc([N+](=O)[O-])c1 (centres undefined) [Cilnidipine] | inactive: 51.7%
5 | N#C/C(=C\c1ccc(O)c(O)c1)C(=O)NCc1ccccc1 [Tyrphostin Ag 490] | inactive: 42.9%
6 | CC(C)CN(C[C@@H](O)[C@H](Cc1ccccc1)NC(=O)O[C@H]1CCOC1)S(=O)(=O)c1ccc(N)cc1 [Amprenavir] | inactive: 43%
7 | OC[C@H]1O[C@@H](c2ccc(Cl)c(Cc3ccc(O[C@H]4CCOC4)cc3)c2)[C@H](O)[C@@H](O)[C@@H]1O [Empagliflozin] | inactive: 43.7%
8 | CCCCOc1ccc(C(=O)Nc2ccc(F)cc2F)cc1 | inactive: 52.6%
9 | CNC(=O)c1cc(Oc2ccc(NC(=O)Nc3ccc(Cl)c(C(F)(F)F)c3)cc2)ccn1 [Sorafenib] | inactive: 27.2% and inactive: 30.1%
10 | COc1c(O)cc2c(c1O)[C@@H]1O[C@H](CO)[C@@H](O)[C@H](O)[C@H]1OC2=O [Bergenin] | inactive: 42.5%
11 | CCOC(=O)c1c(CSc2ccccc2)n(C)c2cc(Br)c(O)c(CN(C)C)c12 [Arbidol HCl] | inactive: 52.4%
12 | C[C@]12C=CC(=O)N[C@@H]1CC[C@@H]1[C@@H]2CC[C@]2(C)[C@@H](C(=O)Nc3cc(C(F)(F)F)ccc3C(F)(F)F)CC[C@@H]12 [Dutasteride] | inactive: 33.6%
13 | Cc1ccc(C(=O)N(CCCN)[C@@H](c2oc3cc(Cl)ccc3c(=O)c2Cc2ccccc2)C(C)C)cc1 | inactive: 38.5%
14 | COc1cc2nc(N3CCN(C(=O)c4ccco4)CC3)nc(N)c2cc1OC [Prazosin] | inactive: 47.6%
15 | COc1cc(CCc2cc(NC(=O)c3ccc(N4C[C@@H](C)N[C@@H](C)C4)cc3)[nH]n2)cc(OC)c1 | inactive: 38.4%
16 | CC(C)C(=O)Nc1ccc([N+](=O)[O-])c(C(F)(F)F)c1 [Flutamide] | inactive: 38.2%
17 | C[C@@H]1C[C@H]2[C@@H]3C[C@H](F)C4=CC(=O)C=C[C@]4(C)[C@@]3(F)[C@@H](O)C[C@]2(C)[C@@]1(O)C(=O)CO [Flumethasone] | inactive: 42.2%
18 | O=C(c1ccc(OCCCc2c[nH]cn2)cc1)C1CC1 [Ciproxifan] | inactive: 50.4%
19 | CC1(C)O[C@H]2CC(=O)OC[C@]23[C@H]2CC[C@@]4(C)[C@H](c5ccoc5)OC(=O)[C@H]5O[C@]54[C@]2(C)C(=O)C[C@@H]13 [Limonin] | inactive: 42.2%
20 | N[C@@H](CC(=O)N1CCn2c(nnc2C(F)(F)F)C1)Cc1cc(F)c(F)cc1F [Sitagliptin] | inactive: 44.6%
21 | CC(=O)SCC(Cc1ccccc1)C(=O)NCC(=O)OCc1ccccc1 (centres undefined) [Racecadotril] | inactive: 45%
22 | OCCN(CCO)c1nc(N2CCCCC2)c2nc(N(CCO)CCO)nc(N3CCCCC3)c2n1 [Dipyridamole] | inactive: 42.4%
23 | CN(C)c1ccc(C(=C2C=CC(=[N+](C)C)C=C2)c2ccc(N(C)C)cc2)cc1 [Gentian Violet] | inactive: 43.4%

Row | SMILES | percentage of GFP+
24 | COc1ccc(F)c(F)c1C(=O)c1cnc(NC2CCN(S(C)(=O)=O)CC2)nc1N | inactive: 24.8%
25 | CO/C(O)=C1/C(C)=NC(C)=C(C(=O)OC(C)C)C1c1cccc2nonc12 (centres undefined) [Isradipine] | inactive: 34.6%
26 | Cc1c(C(=O)Nc2ccc(N3CCC(N4CCOCC4)CC3)c(C#N)c2)cnn1-c1ccc(Cl)cc1 | inactive: 29.2%
27 | OC(Cn1cncn1)(Cn1cncn1)c1ccc(F)cc1F [Fluconazole] | inactive: 34.2%
28 | CCN(CC)CCNC(=O)c1c(C)[nH]c(/C=C2\C(=O)Nc3ccc(F)cc32)c1C [Sunitinib] | inactive: 30.2%
29 | O=C(c1ccc(OCCN2CCCCC2)cc1)c1c(-c2ccc(O)cc2)sc2cc(O)ccc12 [Raloxifene] | active: 16.8%
30 | CCN(CC)Cc1ccc2cc(COC(=O)Nc3ccc(C(=O)NO)cc3)ccc2c1 [Givinostat] | inactive: 23.2%
31 | COc1cc(C(C)=O)ccc1OCCCN1CCC(c2noc3cc(F)ccc23)CC1 [Iloperidone] | inactive: 56.8%
32 | CN1CCC(=C2c3ccccc3CCc3sccc32)CC1 [Pizotyline Malate] | inactive: 53.9%
33 | NCCc1c[nH]cn1 [Histamine] | inactive: 46.4%
34 | COc1cc2ncnc(Sc3nnc(C)s3)c2cc1OC | inactive: 50.2%
35 | Cc1[nH]c(/C=C2\C(=O)Nc3ccc(S(=O)(=O)Cc4c(Cl)cccc4Cl)cc32)c(C)c1C(=O)N1CCC[C@@H]1CN1CCCC1 | inactive: 79%
36 | CC[C@]1(O)C[C@@H]2CN(CCc3c([nH]c4ccccc34)[C@@](C(=O)OC)(c3cc4c(cc3OC)N(C=O)[C@@H]3C45CCN4CC=C[C@](CC)([C@H]45)[C@@H](OC(C)=O)[C@]3(O)C(=O)OC)C2)C1 (some centres undefined) [Vincristine] | active: 16.5%
37 | O=C(NOCC1CC1)c1ccc(F)c(F)c1Nc1ccc(I)cc1Cl | inactive: 42.2%
38 | NC(=O)C1CCCc2c1[nH]c1ccc(Cl)cc21 (centres undefined) [Selisistat] | inactive: 44.8%
39 | Nc1nc(N)c2nc(-c3cccc(O)c3)cnc2n1 | inactive: 40.8%
40 | CN1CCN(C(c2ccccc2)c2ccccc2)CC1 [Cyclizine] | inactive: 47.5%
41 | OC1(c2ccc(Cl)c(C(F)(F)F)c2)CCN(CCCC(c2ccc(F)cc2)c2ccc(F)cc2)CC1 [Penfluridol] | inactive: 55.9%
42 | COc1cc2c(cc1OC)CC(=O)N(CCCN(C)C[C@H]1Cc3cc(OC)c(OC)cc31)CC2 [Ivabradine] | inactive: 38.8%
43 | CCCCOc1c(C(=O)c2c(F)cc(C)cc2F)cnc2[nH]ncc12 | inactive: 30.9%
44 | FC(F)c1nc2ccccc2n1-c1nc(N2CCOCC2)nc(N2CCOCC2)n1 | inactive: 30.8%
45 | C[C@]1(O)C[C@@H](c2nc(-c3ccc4ccc(-c5ccccc5)nc4c3)c3c(N)nccn32)C1 [Linsitinib] | inactive: 46.4%
46 | CC(=O)OCC(=O)NCCCOc1cccc(CN2CCCCC2)c1 [Roxatidine acetate] | inactive: 41.6%

Row | SMILES | percentage of GFP+
47 | OC[C@@H](O)[C@@H](O)[C@H](O)[C@H](O)CO [Mannitol] | inactive: 35.6%
48 | O=C1CC[C@@H](C(=O)N2CSC[C@H]2C(=O)O)N1 [Pidotimod] ([pGlu]-[Thz]-OH) | inactive: 37.8%
49 | CCOc1ccc(Cc2cc([C@@H]3O[C@H](CO)[C@@H](O)[C@H](O)[C@H]3O)ccc2Cl)cc1 [Dapagliflozin] | inactive: 38.4%
50 | N=C(N)NC(=O)c1nc(Cl)c(N)nc1N [Amiloride] | inactive: 33.1%
51 | CCCc1ncc(C[n+]2ccccc2C)c(N)n1 [Amprolium] | inactive: 49.9%
52 | COc1cc2c(cc1OC)[C@@H]1Cc3ccc(OC)c(OC)c3CN1CC2 [Rotundine] | inactive: 40.2%
53 | CC(C(=O)O)c1cccc(Oc2ccccc2)c1 (centres undefined) [Fenoprofen] | inactive: 51.2%
54 | Cc1cccc(-c2[nH]c(C(C)(C)C)nc2-c2ccc3nccnc3c2)n1 | inactive: 42.9%
55 | Oc1ccc(Nc2nc(-c3ccc(Cl)cc3)cs2)cc1 | inactive: 44.5%
56 | O=[N+]([O-])c1cn2c(n1)OC[C@@H](OCc1ccc(OC(F)(F)F)cc1)C2 | inactive: 54.8%
57 | COc1ccc2c(c1)c(C1=C(c3c[nH]c4ccccc34)C(=O)NC1=O)cn2CCCN(C)C | inactive: 60.7%
58 | Nc1nccc2c1ncn2[C@@H]1C=C(CO)[C@@H](O)[C@H]1O [3-Deazaneplanocin A (DZNeP)] | inactive: 30.1%
59 | Cn1cc(CNCC2CCN(c3ncc(C(=O)NO)cn3)CC2)c2ccccc21 [Quisinostat] | active: 1.92%
60 | CNC(=O)c1nn(C)c2c1C(C)(C)Cc1cnc(Nc3ccc(N4CCN(C)CC4)cc3)nc1-2 [Milciclib] | inactive: 44.1%
61 | O=C(CCCCCN1C(=O)c2cccc3cccc(c23)C1=O)NO [Scriptaid] | inactive: 37.6%
62 | S=C(NCc1ccc2c(c1)OCO2)N1CCN(c2ncnc3c2oc2ccccc23)CC1 [Amuvatinib] | inactive: 36.1%
63 | CC(C)(O)[C@H]1CC[C@@](C)([C@H]2[C@@H](O)C[C@@]3(C)[C@@H]4C[C@H](O[C@@H]5O[C@H](CO)[C@@H](O)[C@H](O)[C@H]5O)[C@H]5C(C)(C)[C@@H](O[C@@H]6OC[C@@H](O)[C@H](O)[C@H]6O)CC[C@@]56C[C@@]46CC[C@]23C)O1 [Astragaloside A] | inactive: 52.4%
64 | c1ccc(CN(CC2=NCCN2)c2ccccc2)cc1 [Antazoline] | inactive: 48.8%
65 | Nc1ccc2ncnc(NCCc3ccc(Oc4ccccc4)cc3)c2c1 | inactive: 39.5%
66 | Oc1c(Br)cc(Br)c2cccnc12 [Broxyquinoline] | inactive: 50%
67 | O=C(O)c1ccc(/C=C2/SC(=S)N(c3cccc(C(F)(F)F)c3)C2=O)cc1 | inactive: 42.2%
68 | C[C@@H](O)[C@H]1C(=O)N2C(C(=O)OCOC(=O)C(C)(C)C)=C(SC3CN(C4=NCCS4)C3)[C@H](C)[C@H]12 [Tebipenem Pivoxil] | inactive: 45.1%
69 | CN(C)CC(=O)Nc1ccc2nc(O)c3ccccc3c2c1 | inactive: 39.8%
